# Test results published in paper PMC4336329 (PLoS ONE, 2015).
# The campaign covered roughly 310,000 compounds. About 14,000 (4.5%) showed an effect of 50% or more. The effect is printed as a negative number. The list shows a part of the results.
# Target: human ether-à-go-go-related gene (hERG) potassium channel (human, UniProt Q12809)
# Experiment: primary screen, population patch clamp on CHO cells stably expressing hERG
# 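Further: peak tail current of the secondary pulse compared with the same well before compound.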
# human ether-à-go-go-related gene (hERG) potassium channel, sequence (Q12809 whole entry, looked up): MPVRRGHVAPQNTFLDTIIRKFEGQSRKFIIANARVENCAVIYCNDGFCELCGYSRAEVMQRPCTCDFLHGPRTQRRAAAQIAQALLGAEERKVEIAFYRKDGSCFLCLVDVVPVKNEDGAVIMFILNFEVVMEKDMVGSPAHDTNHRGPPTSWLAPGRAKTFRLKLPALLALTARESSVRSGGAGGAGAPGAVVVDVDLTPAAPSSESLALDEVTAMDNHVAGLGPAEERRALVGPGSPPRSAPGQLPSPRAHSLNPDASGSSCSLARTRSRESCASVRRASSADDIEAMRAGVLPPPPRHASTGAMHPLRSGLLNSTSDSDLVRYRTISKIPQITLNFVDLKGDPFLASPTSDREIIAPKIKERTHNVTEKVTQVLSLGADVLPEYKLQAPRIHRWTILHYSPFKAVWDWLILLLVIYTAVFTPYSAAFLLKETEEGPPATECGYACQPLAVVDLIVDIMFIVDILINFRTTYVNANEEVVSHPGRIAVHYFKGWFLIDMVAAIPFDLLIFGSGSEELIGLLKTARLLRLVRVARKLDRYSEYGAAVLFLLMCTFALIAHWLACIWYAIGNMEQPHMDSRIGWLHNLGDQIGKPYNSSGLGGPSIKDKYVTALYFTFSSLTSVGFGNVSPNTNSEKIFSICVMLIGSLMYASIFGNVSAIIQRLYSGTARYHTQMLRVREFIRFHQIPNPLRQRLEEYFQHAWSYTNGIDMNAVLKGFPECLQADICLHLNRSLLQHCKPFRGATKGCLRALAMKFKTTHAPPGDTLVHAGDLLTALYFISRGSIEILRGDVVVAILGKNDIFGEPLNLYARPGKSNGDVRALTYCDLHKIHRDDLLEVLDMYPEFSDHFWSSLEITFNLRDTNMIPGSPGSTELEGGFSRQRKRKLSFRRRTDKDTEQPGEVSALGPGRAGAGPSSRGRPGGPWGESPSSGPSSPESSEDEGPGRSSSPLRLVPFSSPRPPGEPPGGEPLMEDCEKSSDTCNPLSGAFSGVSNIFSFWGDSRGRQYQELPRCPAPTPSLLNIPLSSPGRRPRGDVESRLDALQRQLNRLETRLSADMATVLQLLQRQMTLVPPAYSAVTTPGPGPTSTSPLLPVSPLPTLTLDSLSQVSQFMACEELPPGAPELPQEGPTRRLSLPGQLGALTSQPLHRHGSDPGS
row,SMILES,"hERG current change (%, negative = inhibition) at 10uM [%]"
1,CCOC(=O)[C@H]1[C@H]2COc3ccc(OC)cc3[C@@H]2N2C(=O)CN(Cc3ccc(OC)cc3)C(=O)[C@@]12C,-28.9
2,COc1ccc(NCc2nnc(SCC(=O)c3ccc(C)cc3)o2)cc1,-19.1
3,Cc1c(Cl)cccc1NC(=O)CCN1CCC(C(N)=O)CC1,-7.36
4,CN(CC(=O)Nc1ccccc1Br)C(=O)CCSc1ccc(F)cc1,-34.1
5,O=C(NCCNC(=O)c1cc(F)cc(F)c1)c1cc(F)cc(F)c1,16.5
6,O=C1N=C(N2CCOCC2)S/C1=C\c1ccccc1OS(=O)(=O)c1ccccc1,0.61
7,CCCCn1c(O)c(C(CC)=NCCc2ccccc2)c(=O)[nH]c1=O,-36.8
8,Cc1cccc(C)c1NC(=O)/C(C#N)=C/c1cccs1,-6.39
9,O=[N+]([O-])c1cccc(S(=O)(=O)NCC2CC3CCC2C3)c1 (centres unmarked),3.6
10,COC(=O)CCC(=O)Nc1cc(Cl)cc(Cl)c1,3.72
11,Cn1c(NC(=O)/C=C/c2c(F)cccc2Cl)cc(=O)n(C)c1=O,16.9
12,CC(=O)c1cc2c(cc1NC(=O)c1ccc(Cl)cc1)OCCO2,19.5
13,Oc1c(Cl)cc(CN2CCOCC2)c2cccnc12,-2.08
14,COc1ccc(CN=C(C)c2c(C(F)(F)F)[nH]n(-c3nc4ccccc4s3)c2=O)cc1,13.5
15,CCOC(=O)C1=C(COC(=O)C2CC(=O)N(c3ccc(C)cc3)C2)NC(=O)NC1C (centres unmarked),-7.55
16,COc1cc(C(=O)OCCN2CCCCC2)ccc1O.Cl,3.87
17,CC1CC(C)CN(C(=O)C(NS(=O)(=O)c2ccc(Br)s2)c2ccccc2)C1 (centres unmarked),-5.18
18,Cc1ccc(C2c3sc(=O)[nH]c3SC3C(=O)NC(=O)C32)cc1 (centres unmarked),2.65
19,Cc1ccc(C(CC(=O)N2CCOCC2)c2ccco2)cc1 (centres unmarked),5.91
20,CCN1C(=O)CSc2ccc(C(=O)OC)cc21,13.4
21,COc1cccc(/C=C2/Sc3ccc(C(=O)NCCCN4CCCC4)cc3NC2=O)c1,-59.8
22,COc1cc(NC(=O)c2cccc3c2C(=O)N(Cc2cccnc2)C3)cc(OC)c1OC,-79.2
23,O=C(Nc1ccnn1C1CCN(C2CCCC2)CC1)c1ccccc1Cl,-45

row,SMILES,"hERG current change (%, negative = inhibition) at 10uM [%]"
1,O=[N+]([O-])c1cccc(S(=O)(=O)N2CCCCCC2)c1,-15
2,Cc1cc2c(c(=O)n1Cc1cccnc1)C(c1cccs1)C(C#N)=C(N)O2 (centres unmarked),2.28
3,Cc1ccnc(NC(=O)CNC(=O)Cc2cccc3ccccc23)c1,-0.565
4,Cl.OC(CN1C2=NCCN2c2ccccc21)c1ccc2c(c1)OCO2 (centres unmarked),-63.6
5,COc1ccc(NC(=O)Nc2cnccn2)cc1OC,23.8
6,CC(=O)NCCC(=O)Nc1ccc(C)c(F)c1,0.223
7,O=C(NCc1cccs1)C1CCCN1C(=O)Nc1cccc(F)c1 (centres unmarked),5.9
8,COCCNC(=O)C(C)Oc1ccccc1 (centres unmarked),13.4
9,CC(C)CC(=O)c1c[nH]c(C(=O)O)c1,19.9
10,COc1ccc(CCNC(=O)CSc2ncn[nH]2)cc1,-8.41
11,Cn1c(=O)c(C(=O)NCCCc2ccccc2)c(O)c2ccccc21,13.9
12,Cc1ccc(S(=O)(=O)N/N=C/c2ccc3nccnc3c2)cc1,21.9
13,COc1ccc(Cl)cc1NC(=S)N(CCN1CCOCC1)C1CCN(C(C)=O)CC1,9.46
14,CN(Cc1cccs1)C(=O)c1ccc(S(=O)(=O)N2CCCCC2)cc1,-18.8
15,CC1=CC(=O)C2=C(C)CC[C@@H]3[C@H](OC(=O)[C@H]3C)[C@@H]12,-13
16,COc1ccccc1N(/N=C1\Sc2ccccc2C1=O)C(C)=O,2.52
17,Cc1c(NC(=S)N/N=C/C=C/c2ccccc2)c(=O)n(-c2ccccc2)n1C,11.2
18,CNC(=O)c1ccc(NC(=O)C2CCN(c3ncnc4sc(C)c(C)c34)CC2)cc1,14.8
19,COc1ccccc1N1C(=O)c2ccccc2NC1C(OC)OC (centres unmarked),17
20,CCOc1ccc2oc(C(=O)N3CCN(Cc4ccccc4)CC3)c(C)c2c1,-18.4
21,CCc1cc(CNC(=O)c2cc(COc3ccc(C)nc3)on2)on1,4.58
22,Cn1ccnc1SCC(=O)c1ccc2ccccc2c1,22.3
23,O=C(NC1CC2CCCC(C1)N2C(=S)Nc1ccccc1)C1CC1 (centres unmarked),12.7

row,SMILES,"hERG current change (%, negative = inhibition) at 10uM [%]"
1,Cn1c(SCC(=O)Nc2ccccc2F)nnc1-c1cc2ccccc2o1,-14.2
2,CC(=O)c1cccc(NC(=O)Cn2c(=O)oc3cc(S(=O)(=O)N4CCCC4)ccc32)c1,-4.33
3,COC/C=C/C1=CC2=CC(=O)C(C)(OC(=O)c3cnc4ccccc4n3)C(=O)C2=CO1 (centres unmarked),14.8
4,O=C(O)/C=C/c1ccc(OCc2cccc(F)c2)cc1,34.5
5,Cc1ccc(-n2c(C)cc(C(=O)CSc3nnnn3C)c2C)cc1,-27
6,N#CC1=C(N)N2C(=C(C#N)C13CCCC3)Nc1ccccc12,8.94
7,COC(=O)c1ccccc1NC(=O)Oc1ccc(F)cc1,-2.77
8,CCOc1ccc(Br)cc1/C=N/O,-4.29
9,N#Cc1ccc[n+](CC(=O)c2ccc(NC(=O)c3ccccc3)cc2)c1.[Br-],-38.1
10,CCCCN(C(=O)CCC(=O)Nc1cc(C)on1)C(C(=O)NC1CCCC1)c1ccccc1OCC (centres unmarked),-18.8
11,CCN(C(=O)COc1cc(=O)n(C)c2ccccc12)c1cccc(Cl)c1,-22.2
12,Cc1ccc(CNS(=O)(=O)c2cc3c(cc2C)NC(=O)CO3)cc1,-39.8
13,Cc1ccc(C)c2[nH]c(=O)c(CN(Cc3cccs3)C(=S)NCc3ccco3)cc12,-33
14,COc1ccccc1-c1ccc(=O)n(CC(=O)NC(C)(C)C)n1,14
15,COc1ccc(C(=O)NCc2ccc(S(N)(=O)=O)cc2)cc1[N+](=O)[O-],24.9
16,COc1ccc(C(=S)NCS(=O)(=O)c2ccc(C)cc2)cc1,-2
17,COc1ccc(OC)c(NC(=O)Nc2cc(C(=O)O)ccc2C)c1,13.1
18,CC(=O)c1c(OC(=O)c2cccc(Cl)c2)c2ccccc2n1C,1.11
19,Cc1nc(-c2cc(C#N)c(Sc3ccc(Cl)cc3Cl)nc2C)cs1,8.09
20,CCO[C@H]1OC(C(=O)NCc2nc3ccccc3[nH]2)=C[C@@H](C)[C@@H]1CCCO,2.83
21,O=C(CSCc1cnn(-c2ccccc2)c1-n1cccc1)NCc1cccnc1,-45.5
22,O=C(CSc1n[nH]c(-c2ccccc2)n1)Nc1ccccc1O,17
23,CSc1sc(C(=O)NNC(C)=O)c2c1C=CCC2,12.6

row,SMILES,"hERG current change (%, negative = inhibition) at 10uM [%]"
1,Cc1ccc(CN2C3CCCC2CC(NC(=O)c2ccc(C)cc2)C3)cc1 (centres unmarked),-77.7
2,CC(C)(C)c1ccc(C(=O)N2CCNCC2)cc1.Cl,-16.7
3,CCn1cc(C(=O)OCC(=O)c2cc(C)n(-c3cccc(C(F)(F)F)c3)c2C)c(=O)c2ccc(C)nc21,-3.95
4,COc1ccc(C(=O)NC2CCN(S(=O)(=O)c3ccccc3)CC2)cc1,12.5
5,CCCCn1c(NC(=O)c2ccccc2Cl)c(C#N)c2nc3ccccc3nc21,9.41
6,S=c1[nH]nc(-c2cccs2)n1Cc1ccccc1,9
7,C/C(N)=C(/C#N)C(=O)COC(=O)CSc1ccc2ccccc2c1,4.78
8,CCOC(=O)c1sc(NC(=O)CSc2nnnn2-c2ccc(C)cc2)c(C(=O)OCC)c1C,5.35
9,CCN1C(=O)/C(=C2/Sc3ccc(OC)cc3N2C)SC1=Nc1cccc(O)c1,15.6
10,O=C(COc1ccc(S(=O)(=O)N2CCCC2)cc1)NCCC1=CCCCC1,-20.7
11,COc1cc(/C=C2/SC(=O)NC2=O)ccc1OC(=O)c1ccco1,-0.00422
12,O=C(COc1ccc(-n2ccnc2)cc1)Nc1cccc(Cl)c1,-38.9
13,Cc1csc(/C(=N/OC(=O)c2ccco2)C(N)=O)n1,-1.32
14,CN(Cc1c(C(=O)N(C)Cc2ccccc2)nc2ccccn12)CC1Cc2ccccc2O1 (centres unmarked),-47.3
15,COc1ccc(OCc2nnc(SCC(=O)NCc3ccco3)o2)cc1,-14.4
16,O=C(Nc1ccnn1C1CCN(Cc2ccc(CO)o2)CC1)c1ccccc1Cl,-0.636
17,CCN1C(=O)C(O)(C2COC(C)(C)CC2=O)c2ccccc21 (centres unmarked),21.4
18,CC(=O)c1c(O)c2ccccc2n(C2CCCCC2)c1=O,1.47
19,COc1ccc(NC2CCCN(C(=O)c3ccccc3C(F)(F)F)C2)cc1 (centres unmarked),3.23
20,COc1ccc(-c2nnc(SC(C)C(=O)Nc3nccs3)n2-c2ccccc2)cc1OC (centres unmarked),-6.58
